From patent publication US9233155B2, “Method of treating solid cancers using anti-c-Met antibody and sorafenib combination therapy” (Samsung Electronics Co., Ltd., priority 2013, dated 2016)

Tests used:
Conditions in all cases: among huAbF46-H4-A1, -A2, -A3, -A5
[1] = target: T1, c-Met (Homo sapiens, UniProt P08581); assay: Affinity for c-Met of affinity-matured antibodies; assay type: binding
[2] = test system: Akt phosphorylation; assay: Akt phosphorylation by affinity-matured antibodies; assay type: cell-based
[3] = target: T1, c-Met; assay: c-Met degradation degree of affinity-matured antibodies; assay type: cell-based

T1 sequence (P08581 25-1390): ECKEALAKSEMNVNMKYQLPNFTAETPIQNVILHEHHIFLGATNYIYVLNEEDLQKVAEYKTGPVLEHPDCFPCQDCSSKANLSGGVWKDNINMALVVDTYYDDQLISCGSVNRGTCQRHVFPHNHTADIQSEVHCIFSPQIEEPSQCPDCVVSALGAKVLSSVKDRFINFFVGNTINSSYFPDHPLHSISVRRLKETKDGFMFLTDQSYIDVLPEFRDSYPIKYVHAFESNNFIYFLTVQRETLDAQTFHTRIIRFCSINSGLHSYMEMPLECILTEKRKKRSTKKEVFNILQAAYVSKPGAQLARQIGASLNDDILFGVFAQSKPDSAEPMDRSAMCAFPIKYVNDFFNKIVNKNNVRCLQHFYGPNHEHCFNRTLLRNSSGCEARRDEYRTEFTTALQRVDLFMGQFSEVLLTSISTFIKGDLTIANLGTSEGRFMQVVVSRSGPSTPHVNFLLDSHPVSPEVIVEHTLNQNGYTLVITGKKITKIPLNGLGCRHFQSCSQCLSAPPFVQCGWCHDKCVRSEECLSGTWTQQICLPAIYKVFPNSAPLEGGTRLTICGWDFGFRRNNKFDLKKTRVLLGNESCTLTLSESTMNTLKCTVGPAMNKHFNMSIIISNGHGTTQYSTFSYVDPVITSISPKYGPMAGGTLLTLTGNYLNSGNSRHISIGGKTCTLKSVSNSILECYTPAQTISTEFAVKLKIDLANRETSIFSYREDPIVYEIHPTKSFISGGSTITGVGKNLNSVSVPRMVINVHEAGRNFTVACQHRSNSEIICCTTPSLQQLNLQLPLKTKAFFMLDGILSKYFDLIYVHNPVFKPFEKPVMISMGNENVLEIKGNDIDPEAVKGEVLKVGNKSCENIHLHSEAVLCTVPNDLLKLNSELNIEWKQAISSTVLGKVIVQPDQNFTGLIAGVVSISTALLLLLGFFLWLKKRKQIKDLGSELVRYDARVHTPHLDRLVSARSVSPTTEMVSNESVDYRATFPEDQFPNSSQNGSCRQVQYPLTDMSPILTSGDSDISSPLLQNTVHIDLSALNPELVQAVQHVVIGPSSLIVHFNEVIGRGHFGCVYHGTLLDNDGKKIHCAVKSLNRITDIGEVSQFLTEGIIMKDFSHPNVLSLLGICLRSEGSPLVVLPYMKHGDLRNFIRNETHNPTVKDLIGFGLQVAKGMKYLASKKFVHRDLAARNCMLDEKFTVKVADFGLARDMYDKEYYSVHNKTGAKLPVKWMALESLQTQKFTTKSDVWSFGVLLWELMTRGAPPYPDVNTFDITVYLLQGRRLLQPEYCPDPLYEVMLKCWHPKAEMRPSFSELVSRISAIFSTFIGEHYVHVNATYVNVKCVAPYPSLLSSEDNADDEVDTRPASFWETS

B1: huAbF46-H4-A1: affinity-matured humanized anti-c-Met antibody of L3-1 origin (CDR-L3 SEQ ID NO: 13) (antibody)
heavy: EVQLVESGGGLVQPGGSLRLSCAASGFTFTDYYMSWVRQAPGKGLEWLGFIRNKANGYTTEYSASVKGRFTISRDNSKNTLYLQMNSLRAEDTAVYYCARDNWFAYWGQGTLVTVSSASTKGPSVFPLAPSSKSTSGGTAALGCLVKDYFPEPVTVSWNSGALTSGVHTFPAVLQSSGLYSLSSVVTVPSSSLGTQTYICNVNHKPSNTKVDKKVEPKSCDCH[letters of human IgG1 Fc not shown]
light: DIQMTQSPSSLSASVGDRVTITCKSSQSLLASGNQNNYLAWHQQKPGKAPKMLIIWASTRVSGVPSRFSGSGSGTDFTLTISSLQPEDFATYYCQQSYSRPYTFGQGTKVEIKRTVAAPSVFIFPPSDEQLKSGTASVVCLLNNFYPREAKVQWKVDNALQSGNSQESVTEQDSKDSTYSLSSTLTLSKADYEKHKVYACEVTHQGLSSPVTKSFNRGEC
In the case of B1, the “affinity for c-Met (rank among the four selected antibodies)” value [1] is reported as “highest”, the “Akt phosphorylation (rank among the four selected antibodies)” value [2] is reported as “lowest” and the “c-Met degradation degree (rank among the four selected antibodies)” value [3] is reported as “lowest”.
